Test results published in PubChem BioAssay (NCI).
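Five concentrations, 48 hours, 96-well plates. Here, GI50 denotes the concentration required for 50% inhibition of growth. TGI denotes the concentration required for complete inhibition of growth.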

system: NCI-H322M lung; assay: NCI tumour cell line growth inhibition, 48 h

SMILES	TGI [µM]	GI50 [µM]
O=C(Nc1cccc([N+](=O)[O-])c1)c1n[nH]n(-c2cccc([N+](=O)[O-])c2)c1=O	> 100	–
C=CCN(CCNS(=O)(=O)c1ccc(C)cc1)S(=O)(=O)c1ccc(C)cc1	> 100	–
O=c1ccn(C2OC(CO)C(O)C2F)c(=O)n1Cc1ccccc1 (stereo unspecified)	> 100	–
O=C1C(Cl)=C(N(C(=O)c2ccccc2)C(=O)c2ccccc2)C(=O)c2ccccc21	> 100	–
CC1=C(SCCC(=O)OC(C[Se]C2=C(C)C(=O)c3ccccc3C2=O)C(=O)NCCCCCC(=O)OCc2ccccc2)C(=O)c2ccccc2C1=O (stereo unspecified)	17.3	3.78
CC1=C2[C@@H](CC1)[C@]1(C)O[C@@](C(C)C)(C[C@H]1OC(=O)CO)[C@H]2OC(=O)C1CC1c1ccccc1 (stereo partly specified)	34.9	17.7
COC(=O)[C@H](Cc1cnc[nH]1)NC(=O)[C@@H](NC(=O)Nc1cc(C(F)(F)F)cc(C(F)(F)F)c1)C(C)C	31.9	17
CC1=C(/C=C/C(C)=C/C2CC(N(C)C)=CC(=O)O2)C(C)(C)CCC1 (stereo unspecified)	32.1	–
COc1ccc(-c2nc(-c3ccc(C)cc3)cn3ccnc23)cc1	> 50	33.4
Nc1nc(Cl)cc(NC2(CO)CCC2)n1	> 100	–
CC(=O)Nc1ccc2[nH]c(C(=O)N3CC(CCl)c4c3cc([N+](=O)[O-])c3ccccc43)cc2c1 (stereo unspecified)	> 89.4	–
C=C1C(=O)O[C@@H]2[C@H](O)[C@@H](C)[C@@H]3C=CC(=O)[C@@]3(C)[C@@H](OC(=O)/C(C)=C/C)[C@H]12	7.1	–
Cc1nc(C)c(N2CCNCC2)c(=O)[nH]1	> 100	–
O=c1[nH]c2ccccc2nc1/C=C(\O)c1ccccc1O	> 100	–
Cc1csc2[n+]1-c1ccccc1N(C(=O)Nc1ccccc1)C(C)C2 (stereo unspecified)	> 100	64.7
COCc1c(-c2cc3cc(C)cc(OC)c3s2)c2c(N)ncnn2c1CN1CCNC(=O)C1	22.4	2.97
CC(=O)[O-].Cn1ccnc1CNCc1nccn1C.[Cu+2].[O-][Cl+3]([O-])([O-])[O-]	> 100	> 100
CN(C)c1ccc2oc(=O)c3ccccc3c2c1	> 100	–
c1csc(-c2ccsc2-c2cccs2)c1	> 100	–
CC(C)(C)OC(=O)CN1CCNCCN(CC(=O)OC(C)(C)C)CCNCC1	> 100	–
C=C1C(O)C[C@H](OC(C)=O)[C@]2(C)C1C(OC(C)=O)[C@]1(C(C)(C)O)CC(O)C(C)=C1[C@@H](OC(=O)c1ccccc1)C2OC(C)=O (stereo partly specified)	> 10	–
COc1ccc2c(c1)[nH]c(=O)c1c3cccc(F)c3cn21	> 100	5.79
Cc1csc2c1-n1cccc1C2=O	> 100	–
O=C(CCCN1CCC(O)(c2ccc(Cl)cc2)CC1)c1ccc(F)cc1	> 100	–
Cc1cccc2nc3ccccc3c(Nc3ccc(NS(C)(=O)=O)cc3)c12	46.9	15.4

SMILES	TGI [µM]	GI50 [µM]
CCN(Cc1ccccc1)C1CCN(Cc2cc(Br)ccc2O)CC1	> 100	> 100
Cc1ccc(-c2nc(N/N=C/c3ccc(O)cc3)c3ccccc3n2)cc1	> 100	–
CC(C)=CCC/C(C)=C/COc1c2ccoc2cc2oc(=O)ccc12	> 100	–
COC1=CC2(CC(OC)=C1OC)OC21COc2ccccc2C1=O (stereo unspecified)	> 100	–
Cc1cc(S(=O)(=O)Nc2nc3ccccc3nc2-c2ccc(Cl)cc2)c(S)cc1Cl	32.3	–
O=[N+]([O-])C(/C=N/Nc1ccccc1)/C=N/Nc1ccccc1	> 100	–
CCOP(=O)(OCC)C1CCCOC1=O (stereo unspecified)	> 100	–
Cn1c(CO)ccc1-c1ccc(-c2ccc[se]2)[se]1	> 87.2	–
OCCN(/N=C\c1ccc2ccccc2c1)C1=NCCN1	77.6	–
CCOC(=O)Nc1ccc2c(c1)c(CCCCCCc1nc3ccccc3c3ccc(NC(=O)OCC)cc13)nc1ccccc12	> 100	–
O=C(/C=C(\S/C=C(/c1ccccc1)N1CCn2c(C(=O)c3ccccc3)c(C(=O)c3ccccc3)c(C(=O)c3ccccc3)c21)C(=O)c1ccccc1)c1ccccc1	> 10	–
Cc1cccc(N2C(=O)C3c4[nH]c5ccccc5c4C4CCC(C(C)(C)C)CC4C3C2=O)c1 (stereo unspecified)	26.5	–
O=C([CH-]C(=O)c1ccccc1)c1ccccc1.[CH-]1CCCCC1.[CH-]1CCCCC1.[CH-]1CCCCC1.[Sn+4]	28.4	12.5
COc1ccccc1NC(=O)CC(=O)N1N=C(N2c3ccccc3Sc3ccccc32)CC1c1ccccc1 (stereo unspecified)	> 100	–
O=C(c1ccc(Cl)cc1)N(C(=S)N1CCN(c2ccccn2)CC1)C1CCCCC1	> 100	–
Cc1ccccc1NC(=O)c1sc2nc(C)c(C(=O)/C=C/c3ccccc3)cc2c1N	7.42	1.87
Cc1cc(=O)n2nc(CCl)sc2n1	31.2	–
CCOC(=O)c1nc2ccc(C(F)(F)F)cc2nc1Nc1ccc(Cl)c(Cl)c1	> 100	–
CC(N)(Cc1c[nH]c2cccc(F)c12)C(=O)O (stereo unspecified)	> 1000	> 1000
COC(=O)c1c(O)ccc2[nH]c3c(O)c4ccccc4cc3c12	57.5	–
C[CH2][Ge]([CH2]C)([CH2]C)[O]C(=O)C(OC(C)=O)c1ccccc1 (stereo unspecified)	> 100	> 100
CC(C)(C)C1CCC2c3c([nH]c4ccccc34)C3C(=O)N(c4ccc(Cl)cc4)C(=O)C3C2C1 (stereo unspecified)	> 10	–
NC1=NS(=O)(=O)Nc2nc(-c3ccccc3)[nH]c21	> 100	–
NC1=Nc2cc(Cl)ccc2Sc2nc3ccccc3n21	> 100	–
CCCCCCCCCCCCCCCCCCn1cc[n+](C)c1	2.91	1.39

SMILES	TGI [µM]	GI50 [µM]
COC(=O)c1c(C#N)c(N)nc2c1CCC2	> 100	–
O=C(/C=C\c1ccc([N+](=O)[O-])cc1)c1ccccc(=O)c1O	8.31	–
COc1cc(/C=C/C(=O)/C=C/c2ccc(-n3ccnc3C)cc2)ccc1O	> 100	8.8
O=C(CSc1nc(-c2ccccc2)c(-c2ccccc2)[nH]1)N/N=C/c1ccc(O)cc1	> 100	–
O=C1CC[C@@]2(O)[C@H]3Cc4ccc(-c5ccccc5)c5c4[C@@]2(CCN3CC2CC2)[C@H]1O5	67.3	–
COc1ccc2c(c1OC)CO[C@@H]2[C@H]1c2c(cc3c(c2OC)OCO3)CCN1S(=O)(=O)c1cn(C)cn1	> 100	5.46
O=c1oc2ccccc2cc1-c1cn2c(n1)sc1ccccc12	14.2	–
CC(=O)Oc1c(-c2ccccc2)sc2ccccc12	33.9	–
Cc1ccc(C2=C(C#N)C(N)OC3=C2COc2ccccc23)cc1 (stereo unspecified)	28.5	–
Nc1ncn2c(n1)nc1ccccc12	> 100	–
O=C1/C=C(/c2ccc(O)cc2)[C@@H](O)Cc2ccc(O)cc2O1	> 100	–
CCOCCCn1c2c(c3c(O)cccc31)C(=O)c1ccccc1-2	59.7	19
COC(=O)N/N=C(\C)c1c(O)cc(C)oc1=O	> 100	–
Cc1cc(S(=O)(=O)Nc2nnc3cnc4ccccc4n23)c(S)cc1Cl	> 100	–
CC1C(C)N(C(=O)CCl)c2ccccc2N1C(=O)CCl (stereo unspecified)	3.57	1.68
O=C1C=CC=C/C1=C1/SC(c2ccccc2)=C(O)N1c1ccccc1	> 100	–
O=C(Nc1ccccc1)Nc1ccc2cc3ccc(NC(=O)Nc4ccccc4)cc3nc2c1	3.7	1.72
NC(CSSCC(N)=NCC12CC3CC(CC(C3)C1)C2)=NCC12CC3CC(CC(C3)C1)C2	28.6	–
CCN(CC)CCN1C(=O)c2c(c3c4ccccc4[nH]c3c3ccc4ccccc4c23)C1=O	2.79	1.44
Cc1oc2c(c1C)S(=O)(=O)C(C#N)=C(N(C)C)N2	> 100	–
O=C(NC(=O)c1cc(-c2ccccc2)n[nH]1)c1ccccc1	> 100	–
CCCCCCCCCCCCCCC(O)C[N+](C)(CCO)CCO (stereo unspecified)	28.6	–
C[C@@H]1C(=O)C[C@H]2C(C)(C)CCC[C@]2(C)[C@@]1(O)CCc1ccoc1	> 100	–
CN(C)CCNC(=O)c1cccc2cc3c(Cl)cccc3nc12	7.27	–
CCOC(=O)/C(=C/c1ccc(C(=O)OC)cc1)N(CC)CC	> 100	–

SMILES	TGI [µM]	GI50 [µM]
CCOC(=O)C(=O)CC1=Nc2ccccc2SC(c2cccc(C)c2)C1 (stereo unspecified)	51.9	–
C=C1CC(Cn2ccc(=O)[nH]c2=O)(c2ccc(Cl)cc2)OC1=O (stereo unspecified)	30.9	–
Cc1cc2c(C)n(Cc3ccccc3Cl)nc2c(C(=O)O)c1C	> 100	–
Cc1sc2c(c1C)/C(=N\O)c1cccn1-2	> 100	–
CNC(=O)c1c(NC(=O)c2ccc(C(C)(C)C)cc2)sc2c1CCC(=O)C2	> 29.1	2.9
CCN(CC)CCCNc1cc(OC)cc2nc3cc(Cl)ccc3nc12	9.81	2.33
Nc1[nH]nc2nc3ccccc3nc12	> 100	–
CCOC(=O)c1cc2c(cc1Cl)SC(=Nc1ccccc1)N(S(=O)(=O)c1ccc(Cl)cc1)S2(=O)=O	41	24.7
Nc1ccc(C2=CC(c3ccc(Cl)cc3)N3C=CSC3=N2)cc1 (stereo unspecified)	89.3	17.4
ClC/C=C/COC1CCCCO1 (stereo unspecified)	> 100	–
O=C(O)c1ccc(C2=Cc3cc(Cl)ccc3OC2)cc1	> 100	–
CCOC(=O)NC(OC)(C(F)(F)F)C(F)(F)F	> 100	–
COc1cc(Nc2ncc(-c3ccccc3)o2)cc(OC)c1	> 25	> 25
Clc1ccc(-c2cn3c(nc4ccccc43)c(/C=C/c3ccco3)n2)cc1	> 100	–
NC(=O)c1cc([N+](=O)[O-])c(Cl)c([N+](=O)[O-])c1Cl	19.7	6.05
COC12C=C/C(=C(/C(=O)OCc3ccccn3)C(=O)CCCCCCCCC3(OC)C=C/C(=C(/C(=O)OCc4ccccn4)C(=O)CCCCCCCC1)O3)O2	2.79	1.09
C[C@]12CC[C@H]3[C@@H](CC=C4C[C@@H](N5CCCC5)CC[C@@]43C)[C@@H]1C/C(=C\c1cccc(OCCN3CCOCC3)c1)[C@@H]2O	> 100	7.07
Cn1ncc2c(Cl)ncnc21	> 100	–
C/C=C1\CN(C(=O)OC(C)(C)C)C1C(=O)OC(C)(C)C (stereo unspecified)	> 100	–
CC1/C(=N\O)CC(c2ccccc2)N(C)C1c1ccccc1 (stereo unspecified)	> 100	–
CC1(C)CNc2cc(NC(=O)c3cccnc3NCc3ccncc3)ccc21	> 100	51.8
COc1ccc([C@@H]2CC(=O)N2)cc1	> 100	–
CN(C)c1ccc(/C=C(\NC(=O)c2ccccc2)C2=NC(CCC(=O)O)C(=O)O2)cc1 (stereo unspecified)	> 50	–
COc1ncc(Nc2ncc([C@@H](C)N3CCN(S(C)(=O)=O)CC3)cc2-c2nc(C)nc(N)n2)cc1F	3.03	0.0633
COC(=O)C1Cc2c(n(C)c3ccccc23)C(CCC(=O)O)N1Cc1ccccc1 (stereo unspecified)	> 100	–
